Results are given in words; binding and its absence hold for the method and conditions named. In cells and extracts the contact can be indirect. Some results given as binding are weak or reduced against the parent protein; the word gives no strength.

Amino acid sequences for entries named in this document (tags omitted). A change or cut given only in a name is not applied to a line headed by its entry.
UniProt P16870: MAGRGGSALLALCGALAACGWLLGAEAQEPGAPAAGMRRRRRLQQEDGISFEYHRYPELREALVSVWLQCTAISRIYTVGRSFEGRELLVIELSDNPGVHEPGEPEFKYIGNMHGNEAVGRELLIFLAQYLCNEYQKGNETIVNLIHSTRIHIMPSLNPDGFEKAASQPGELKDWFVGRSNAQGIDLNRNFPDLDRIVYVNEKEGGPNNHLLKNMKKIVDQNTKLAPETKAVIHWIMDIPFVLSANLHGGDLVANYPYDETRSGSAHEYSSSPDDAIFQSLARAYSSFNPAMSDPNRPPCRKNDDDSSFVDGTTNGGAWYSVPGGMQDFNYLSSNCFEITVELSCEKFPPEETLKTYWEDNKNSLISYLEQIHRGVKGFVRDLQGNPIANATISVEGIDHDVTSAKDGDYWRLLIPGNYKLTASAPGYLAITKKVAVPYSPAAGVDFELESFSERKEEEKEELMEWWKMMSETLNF
UniProt P28566: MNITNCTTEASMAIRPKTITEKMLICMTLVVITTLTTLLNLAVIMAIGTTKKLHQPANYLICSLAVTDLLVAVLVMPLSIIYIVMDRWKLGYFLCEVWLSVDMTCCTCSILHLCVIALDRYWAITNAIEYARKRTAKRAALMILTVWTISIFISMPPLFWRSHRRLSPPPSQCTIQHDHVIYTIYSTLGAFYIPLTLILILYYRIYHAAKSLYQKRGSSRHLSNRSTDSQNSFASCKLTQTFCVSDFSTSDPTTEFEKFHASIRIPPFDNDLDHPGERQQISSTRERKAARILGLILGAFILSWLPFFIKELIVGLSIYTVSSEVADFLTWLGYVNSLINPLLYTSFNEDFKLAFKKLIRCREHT

Experiment [1] deals with NF-α1/CPE, endogenous in LN-18 glioblastoma cells (human (endogenous in LN-18)) (UniProt P16870). Description: co-IP; endogenous proteins; 1 mg precleared LN-18 lysate (50 mM Tris-HCl, 150 mM NaCl, 5 mM EDTA, 0.5% NP-40) with anti-5-HTR1E polyclonal or anti-NF-α1/CPE monoclonal antibody, protein A/G-Sepharose, 4°C overnight; immunoblot for the other protein.
Experiment [2] has as its target human 5-HTR1E with a C-terminal Myc tag (human) (UniProt P28566). Description: co-IP; called pull-down assay in the paper: HEK293 cells co-transfected with 5-HTR1E-myc and CPE-V5 or its fragments, 48 h; 1 mg lysate with anti-Myc or anti-V5-conjugated agarose overnight at 4°C; immunoblot with anti-V5 or anti-Myc.
Experiment [3] has as its target 5-HTR1E, endogenous in LN-18 glioblastoma cells (human (endogenous in LN-18)) (UniProt P28566). The experiment is described as follows: co-IP; endogenous proteins; 1 mg precleared LN-18 lysate (50 mM Tris-HCl, 150 mM NaCl, 5 mM EDTA, 0.5% NP-40) with anti-5-HTR1E polyclonal or anti-NF-α1/CPE monoclonal antibody, protein A/G-Sepharose, 4°C overnight; immunoblot for the other protein.

Take “5-HTR1E, endogenous in LN-18 glioblastoma cells (from UniProt P28566 1-365) (receptor)”: the binding result in experiment [1] was “binds”.
For “NF-α1/CPE fragment 1–150 with a C-terminal V5 tag (from UniProt P16870 26-150) (domain or fragment)”, in experiment [2], the binding result is “no binding”.
On the same count and under the same terms, the same measure for “NF-α1/CPE fragment 1–350 with a C-terminal V5 tag (from UniProt P16870 26-350) (domain or fragment)”: “binds”.
On to “NF-α1/CPE fragment 351–476 with a C-terminal V5 tag (from UniProt P16870 351-476) (domain or fragment)”, for which the binding result in experiment [2] was “no binding”.
Take “NF-α1/CPE, endogenous in LN-18 glioblastoma cells (from UniProt P16870 43-476)”: the binding result in experiment [3] is reported as “binds”.

Values taken from paper PMC8732845.
